Consider 55 compounds from PubChem BioAssay AID463173 (ICCB-Longwood Screening Facility, Harvard Medical School, 2010).

Molecules are shown by their SMILES. About 1,700 (3.3%) of roughly 52,000 compounds were called active. Rule as the data show it: active = survival mostly below about 52% (no sharp cut-off); inactive = mostly above about 56%. The list shows a part of the results.

The test system of the test is Wild type. Nature of the test: S. aureus survival, RN4220 and DeltatarO strains – OD600, teichoic acid synthesis inhibitors, primary screen (AID 463173). The settings on record: S. aureus RN4220 wild type/DeltatarO growth, OD600, 18 h, stronger effect = lower value, screened at 18.75 µg/mL (by protocol).
As for `CCc1cccc(C)c1NC(=O)c1cc(S(=O)(=O)N2CCC3(CC2)OCCO3)ccc1F`, the survival was inactive: 135%.

For the compound `Cc1ccc(S(=O)(=O)N2CCCc3cc(NS(=O)(=O)c4ccc(C)c(C)c4)ccc32)cc1`, the survival is inactive: 60%.

As for `CC(=O)c1ccc(NC(=O)CSc2c(C(C)C)cnc3c2c(=O)n(C)c(=O)n3C)cc1`, the survival is inactive: 94%.

As for `COC(=O)c1ccn(-c2nc(-c3ccc(Cl)cc3)cc(C(F)(F)F)n2)n1`, the survival is active: 9%.

For `Cc1c(-c2nnc(SCC(=O)Nc3ccc(Br)cc3)o2)nnn1-c1ccc(F)cc1`, the survival was inactive: 80%.

Take `COc1ccc(C2(N3CCN(c4cccc(C)c4C)CC3)C(=O)c3ccccc3C2=O)cc1`: the survival is inactive: 91%.

With `O=C(Cn1c(=O)n(Cc2ccc(C(=O)NCc3ccc4c(c3)OCO4)cc2)c(=O)c2ccccc21)Nc1ccc(F)cc1F`, the survival was inactive: 111%.

Take `CCOc1ccc(CNCCSc2nnnn2C)cc1OC`: the survival was inactive: 72%.

Take `O=C(CS(=O)(=O)c1cccc2nsnc12)N1CCN(c2ccccc2)CC1`: the survival is inactive: 119%.

Turning to `CCc1ccc2[nH]c(=O)c(C(c3nnnn3C(C)(C)C)N3CCc4ccccc43)cc2c1` (stereo not given), the survival was inactive: 109%.

Take `COc1ccc(-c2nc(C)c(CCNS(=O)(=O)c3ccc(F)cc3)s2)cc1OC`: the survival is inactive: 80%.

Take `CCCCNC(=O)C1CCN(c2nc3ccc(C)cc3[nH]2)CC1`: the survival was inactive: 63%.

Take `CC(C)c1ccc(CN(Cc2ccco2)c2cnc(S(C)(=O)=O)nc2C(=O)Nc2ccccc2)cc1`: the survival was inactive: 81%.

Turning to `COC(=O)c1ccccc1NC(=O)c1cn2c3c(ccc(Cl)c3c1=O)OC(C)C2` (stereo not given), the survival was inactive: 72%.

Take `COc1cccc(C2C(C(=O)Nc3cccnc3)=C(C)Nc3nc(SCc4ccccc4)nn32)c1` (stereo not given): the survival is inactive: 103%.

`Cc1nc2ccc(S(=O)(=O)CCC(=O)Nc3ccccc3C)cc2s1`: the survival was inactive: 94%.

With `CCOC(=O)c1ccc(NC(=O)C2CCCN(c3ncnc4onc(C)c34)C2)cc1` (stereo not given), the survival was inactive: 60%.

As for `Cc1ccc(NC(=O)Cn2c(=O)oc3cc(S(=O)(=O)N4CCCC4)ccc32)cc1F`, the survival is inactive: 134%.

On to `CC1(C)Cc2nc3sc4c(N5CCOCC5)ncnc4c3cc2CO1`, for which the survival was inactive: 97%.

For `COc1ccc(NC(=O)CSC2=Nc3ccccc3C3=NC(CCC(=O)NCc4ccco4)C(=O)N23)cc1` (stereo not given), the survival was inactive: 60%.

Take `O=C(CC1NCCNC1=O)Nc1cccc(F)c1` (stereo not given): the survival is inactive: 73%.

For `Cc1ccc2ncc3c(-c4ccccc4)nn(CC(=O)NC4CCCCC4)c3c2c1`, the survival was inactive: 82%.

`COc1ccccc1N1CCN(CCCNC(=O)Cn2ncc3c([nH]c4ccccc43)c2=O)CC1`: the survival was inactive: 47%.

On to `CCc1ccc(CNc2nc3nc(C)c(Cc4ccccc4)c(=O)n3[nH]2)cc1`, for which the survival was inactive: 93%.

As for `CCc1ccc(-c2nc(SCC(=O)NCCOC)c(-c3ccc(C)cc3)[nH]2)cc1`, the survival was inactive: 88%.

Consider `CCc1ccc(CN2CCc3nc(Nc4ccc5c(c4)OCCO5)ncc3C2)cc1`, for which the survival is inactive: 89%.

`COc1ccccc1CNC(=O)C(=O)NCC(c1ccc2c(c1)OCO2)N1CCOCC1` (stereo not given): the survival is inactive: 74%.

With `COc1ccc(CCNc2oc(COc3ccc(Cl)cc3)nc2C#N)cc1OC`, the survival was inactive: 95%.

As for `CCc1ccc2nc(N3CCN(C(=O)c4ccco4)CC3)sc2c1`, the survival is inactive: 68%.

For the compound `CC(Sc1ccccc1)C(=O)N/N=C/c1cccnc1` (stereo not given), the survival was inactive: 107%.

With `COc1cccc(NC(=O)CSc2nncn2N)c1`, the survival is inactive: 111%.

`CC(=O)c1cccc(NC(=O)C2=CC(c3ccco3)=NS(=O)(=O)N2C)c1`: the survival is inactive: 87%.

Regarding `COc1ccc(Nc2nnc(-c3ccc(C)c(S(N)(=O)=O)c3)c3ccccc23)cc1`, the survival was inactive: 77%.

Take `CSc1nn(Cc2cccc(F)c2)c(N(C(C)=O)C(C)=O)c1S(=O)(=O)c1ccccc1`: the survival is inactive: 67%.

Consider `O=C(CN1CCCCC1)N1CCCc2ccccc21`, for which the survival was inactive: 116%.

Turning to `CCc1cccc(C)c1NC(=O)c1cnn(-c2ccc(F)cc2)c1-n1cccc1`, the survival was inactive: 22%.

Turning to `CCOc1ccc(S(=O)(=O)Nc2ccc(-c3ccc(N4CCCC4)nn3)cc2)cc1`, the survival is inactive: 72%.

On to `Cc1cccc(S(=O)(=O)c2cn(Cc3ccccc3)c3cc(N4CCCC(C)C4)c(F)cc3c2=O)c1` (stereo not given), for which the survival was inactive: 87%.

Turning to `Cc1cccc2sc(N3CCN(C(=O)c4ccco4)CC3)nc12`, the survival is inactive: 72%.

Consider `Cc1cc(NC(=O)C2CCCN(S(=O)(=O)c3cccc4nonc34)C2)ccc1Br` (stereo not given), for which the survival is inactive: 92%.

`Clc1ccc(CSc2nc(NCCc3ccccc3)c3ccccc3n2)cc1`: the survival is inactive: 71%.

In the case of `CCC(=O)N1CCc2cc(S(=O)(=O)NC(CC(C)C)C(=O)Nc3ccc(CC)cc3)ccc21` (stereo not given), the survival is inactive: 84%.

For `O=C(CN1N=C(c2ccc(Cl)cc2)CCC1=O)NCc1ccc(F)cc1`, the survival is inactive: 64%.

For `COc1ccc(OC)c(CNCc2c(C(=O)O)n(Cc3ccccc3)c3cc(OC)ccc23)c1`, the survival is inactive: 84%.

Regarding `Cc1ccc(-c2cc(C(F)(F)F)n3nc(C(=O)Nc4ccc(C#N)cc4)cc3n2)cc1`, the survival is inactive: 71%.

As for `CCOc1ccccc1CNC(=O)CCCN1C(=O)CCn2nc(-c3cccn3C)cc21`, the survival was inactive: 72%.

Turning to `CCc1ccc(-n2nc(C)c3c(C)cc(=O)n(CC(=O)Nc4ccc(OC)c(OC)c4)c32)cc1`, the survival was inactive: 77%.

Regarding `Cc1ccc(CNC(=O)C2CCN(S(=O)(=O)c3ccc4c(c3)oc(=O)n4C)CC2)cc1`, the survival was inactive: 93%.

Take `CCOC(=O)c1c(C)[nH]c(C)c1S(=O)(=O)N1CCCC(C(=O)N2CCN(c3cc(C)ccc3C)CC2)C1` (stereo not given): the survival was inactive: 72%.

Regarding `COc1ccc(Cl)cc1N(C)C(=O)Cn1cnc2sc(C)c(S(=O)(=O)N3CCN(c4ncccn4)CC3)c2c1=O`, the survival was inactive: 76%.

Consider `CCC(CC)C(=O)Nc1ccccc1C(=O)OCc1cc(=O)n2nc(C3CCCCC3)sc2n1`, for which the survival is inactive: 90%.

Consider `CCOc1ccc(CNC(=O)Cn2ncc3c(=O)oc4ccc(C)cc4c32)cc1`, for which the survival was inactive: 87%.

Turning to `Cc1ccc(C)c(CN2C(=O)c3ccccc3S(=O)(=O)c3ccc(C(=O)N4CCOCC4)cc32)c1`, the survival is inactive: 121%.

As to `CC(C)NC(=O)CSc1nnc(Cc2ccccc2)n1Cc1ccco1`, the survival was inactive: 97%.

Regarding `COc1ccc(C(=O)N2CCCCC2CCN2CCCCC2)cc1` (stereo not given), the survival is inactive: 88%.
